Measured values taken from PubChem BioAssay AID652104 (National Center for Advancing Translational Sciences (NCATS), 2013).
The campaign covered roughly 410,000 compounds. About 7,200 (1.8%) were called active. Inconclusive results, whose numbers are uncertain, are shown with a selection of clear calls. The call rests on the fitted dose curve; in most records, active means well fitted activation curve with a large enough effect; inconclusive means small, poorly fitted or top-dose-only effect, or another doubt; inactive means no such curve, though single readings can be large or run the other way. Potencies of inconclusive entries are doubtful fits and often do not repeat.

Test: qHTS of TDP-43 Inhibitors; further: nearly all actives have a fitted effect of over 50% in size; on growth rescue (activation): % of control where 0% means no effect
Settings: TDP-43 expressing yeast growth rescue, BacTiter-Glo, 24 h; growth rescue (activation): at 46.1 µM (top of the series) unless noted
In short: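 Growth rescue of TDP-43-toxic yeast measured as ATP luminescence (BacTiter-Glo). Cells grown to mid-log in raffinose, induced in galactose at OD600=0.02, exposed to compound 24 hr at 30 deg C.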
Potency means the concentration at half of the fitted maximal effect; tags describe the fitted curve by direction and shape.

Growth rescue (activation), inactive:
O=C(CN1CCCC1)Nc1ccc(Br)cc1[N+](=O)[O-] 0%, Cc1cc(OCC(=O)NCC2(N3CCN(C)CC3)CCCCC2)cc(C)c1Cl -3.04%, COc1c(OC(C)=O)ccc(/C=C/c2ccc3ccccc3n2)c1[N+](=O)[O-] -46.7%, CCn1c(C)cc2c(c1=O)C(c1ccncc1)C(C#N)=C(N)O2 (stereo unspecified) -14.3%, Cc1cc(C)cc(N2CC(c3nc(-c4ccccc4C)no3)CC2=O)c1 (stereo unspecified) 19.3%, CCOC1(c2ccccc2)OC(=O)c2ccccc21 (stereo unspecified) 3.69%, CCCCOC(=O)c1ccc(Nc2ncnc3[nH]ncc23)cc1 6.61%, C/C(=N\Nc1nccnc1Cl)c1ccc(O)cc1 2.66%, O=C(NCc1ccccc1Br)c1ccc2nc(N3CCCCC3)sc2c1 26.5%, CC(O)(c1cccc(F)c1)c1nc(-c2ccccc2)cs1 (stereo unspecified) 36.1%

Potency, inconclusive:
CCOCCCNC(=O)c1cc2c(=O)n(CC)c3ccccc3c2s1 12.6 µM [activator, partial curve], O=C(Cc1ccccc1)Nc1sc2c(c1C(=O)Nc1ccccc1Cl)CCC2 6.31 µM [activator, partial curve], COc1ccc(-c2cc(NCc3ccc(F)cc3)n3cnnc3n2)cc1 11.2 µM [activator, partial curve], O=C(OCn1nnc2ccccc2c1=O)c1ccc(N2CCOCC2)c([N+](=O)[O-])c1 10 µM [activator, partial curve], CC(C)CC1Nc2ncnc(N3CCCCC3)c2N(Cc2ccc(Br)cc2)C1=O (stereo unspecified) 35.5 µM [activator, single point], CC1=C(C(=O)N2CCOCC2)CC(CC(=O)NCCc2ccccn2)C(=O)N1Cc1ccc(F)cc1 (stereo unspecified) 8.91 µM [activator, partial curve, poor fit], COc1ccc(NC(=O)Cn2c(=O)n(-c3ccccc3)c(=O)c3c4c(sc32)CCCC4)cc1 35.5 µM [activator, partial curve, poor fit], Cc1cc(C)cc(Nc2cc(-c3ccccc3)nc(C)n2)c1 20 µM [activator, partial curve], C=CCn1c(SCC(=O)Nc2ccc3c(c2)CCC3)nnc1-c1cccs1 35.5 µM [activator, single point], O=C1CC(SCc2nc3ccccc3[nH]2)C(=O)N1c1cccc(F)c1 (stereo unspecified) 25.1 µM [activator, single point], COc1ccc(CNC(=O)c2cc3cc(C)ccc3n2C)cc1 6.31 µM [activator, partial curve], O=S(=O)(c1ccc2c(c1)CCCN2)N1CCCC1 25.1 µM [activator, partial curve], CC(C)Oc1ccc(CC(=O)NNC(=S)Nc2ccc(Br)cc2)cc1 3.98 µM [activator, full curve], CC1CCCC(NC(=O)NC(=O)CCl)C1C (stereo unspecified) 14.1 µM [activator, single point], COc1ccc(-c2cc3nc(C)c(CCC(=O)N4CCN(c5cccc(Cl)c5)CC4)c(C)n3n2)c(OC)c1 35.5 µM [activator, single point], CCOc1ccc(CCN2C(=S)N([C@@H](Cc3ccccc3)CN3CCC[C@@H]3CN3C(=S)NC[C@@H]3CC(C)C)C[C@@H]2Cc2ccccc2)cc1 11.2 µM [activator, single point], CC(C)CN1C(=O)C(=O)N(CC(=O)N2CCC(Cc3ccccc3)CC2)C1=O 10 µM [activator, partial curve], CCN(CC)S(=O)(=O)c1ccc(NC(=S)NC(=O)C2CCC2)cc1 25.1 µM [activator, single point], CCOC(=O)c1ccc(NC(=O)CN(c2ccc(C)cc2)S(=O)(=O)c2c(C)noc2C)cc1 35.5 µM [activator, partial curve, poor fit], COC(=O)c1ccccc1Sc1ncnc2onc(C)c12 15.8 µM [activator, single point], COc1ccc(C(=O)NCc2nnc(SCC(=O)Nc3cccc(F)c3)o2)cc1 2.82 µM [activator, partial curve], COc1cc(Br)c(CNc2cc(C)ccc2C)cc1OC 12.6 µM [activator, partial curve], CC(=O)C(Sc1nnnn1-c1ccccc1)C(C)=O 11.2 µM [activator, partial curve], O=C(OCCOc1ccccc1)c1n[nH]c2ccccc12 22.4 µM [activator, partial curve], O=S(=O)(Nc1ccc(-c2csc(-c3ccccc3)n2)cc1)c1ccccc1 20 µM [activator, single point], COc1ccc(Cl)cc1NC(=O)CN(C)C(=O)c1cc2ccccc2cc1O 35.5 µM [activator, single point]

Potency, active:
COc1ccccc1Cc1c(-c2ccc(Cl)cc2)nc2c(C)cc(Br)cn12 25.1 µM, CCCCCOC(=O)Cc1c(O)c2ccccc2n(C)c1=O 11.2 µM, CSc1ccc(/C=C/C(=O)OCC(=O)NC2CC2)cc1 22.4 µM, Cn1c(N)c(C(C[N+](=O)[O-])c2c(F)cccc2Cl)c(=O)n(C)c1=O (stereo unspecified) 11.2 µM, Cc1cccc(C(=O)N2CCN=C2SCc2ccc([N+](=O)[O-])cc2)c1 10 µM, COC(=O)c1ccc(OCC(=O)c2ccccc2OC)cc1 11.2 µM, Cc1[nH]c(-c2ccc(F)cc2)cc1C(=O)N1CCN(c2ccc(Cl)cc2)CC1 15.8 µM, COc1ccc(Cl)cc1NC(=O)COC(=O)c1c(-c2ccccc2)noc1C 12.6 µM, c1ccc(Sc2ncnc3ccccc23)cc1 12.6 µM, CCCS(=O)(=O)c1ncc(Cl)c(C(=O)N(Cc2ccccc2)Cc2ccco2)n1 15.8 µM
